Test results: patent US20110262945A1, “GLYCOPROTEIN PRODUCTION METHOD AND SCREENING METHOD” (OTSUKA CHEMICAL CO., LTD., priority 2008, published 2011)

How the values were obtained:
α-chymotrypsin = α-chymotrypsin (Bos taurus, UniProt P00766); experiment: Inhibitory activity of OMSVP3 fractions against chymotrypsin at constant sample concentration (Example 2); assay type: biochemical; settings: for activity intensity (inhibitory activity against chymotrypsin), rank order of fractions: Example 2, sample 2.5 μM, enzyme 0.33 μg/mL, substrate 172 μM, 37° C., 10 minutes, FIGS. 13 and 21
Method: (§1) An enzyme solution of a 0.1 M phosphate buffer (pH=8.0, containing 0.01% α-chymotrypsin and 0.01% bovine serum albumin) and a substrate solution of a 0.1 M phosphate buffer (pH=8.0, containing 517 μM of a 14-residue peptide having a protecting group synthesized in Reference Example 1 (to be described later) (SEQ ID NO:16) and 0.01% bovine serum albumin) were prepared, and 20 μL of each solution was transferred to an Eppendorf tube. Separately, each of the Fractions A to D obtained in Example 1 was lyophilized and dissolved in 0.1 M phosphate buffer (pH=8.0, containing 0.01% bovine serum albumin), and OD280 of each resulting solution was measured to prepare sample solutions of constant protein concentration. Then, 20 μL of each sample solution was added to the solution prepared as above and the inhibitory activity was measured. In this experiment, the final reaction concentration was as follows; a sample concentration of 2.5 μM, an enzyme concentration of 0.33 μg/mL, and a substrate concentration of 172 μM. The resulting reaction solutions were incubated at 37° C. for 10 minutes, after which the reaction was terminated by addition of 5 μL of 4N hydrochloric acid.
as §1, with “Fractions E” for “Fractions A”, “to H” for “to D”

Chymotrypsin = Chymotrypsin (Bos taurus, UniProt P00766); experiment: Percent inhibition against chymotrypsin and calculation of IC50 of OMSVP3 fractions (Example 3); assay type: biochemical; settings: incubation one hour at 37° C., FIGS. 23 to 26
Method: The 14-residue peptide having a protecting group synthesized in Reference Example 1 (to be described later) (SEQ ID NO:16) (1.5 mg) was dissolved in 1 mL of a 0.1 M phosphate buffer (pH 8.0, containing 0.1 mg/mL BSA) to prepare a 1 mM solution. The solution thus obtained was diluted to 0.34 mM using an absorption spectrometer (solution 1). Chymotrypsin (1 mg) was dissolved in 1 mL of a 0.1 M phosphate buffer (pH 8.0, containing 0.1 mg/mL BSA). The resulting solution was diluted 10-fold, and further diluted 10-fold. The above operation was repeated so that a solution of 0.2 μg/mL was prepared (solution 2). Fraction B was dissolved in 100 μL of a 0.1 M phosphate buffer (pH 8.0, containing 0.1 mg/mL BSA), and the solution thus obtained was diluted to 65 nM using an absorption spectrometer. The resulting solution was diluted to prepare solutions of 58.5 nM, 52 nM, 45.5 nM, 39 nM, 32.5 nM, 26 nM, 19.5 nM, 13 nM, and 6.5 nM (solution 3). Into the same Eppendorf tube, 80 μL of Solution 1 that was sufficiently cooled on ice and 40 μL each of Solutions 2 and 3 were transferred, followed by incubation for one hour at 37° C. After one hour, the reaction was terminated by addition of 16 μL of 1N hydrochloric acid. Then, 20 μL of the resulting reaction solution was mixed with 80 μL of buffer to make up a total of 100 μL which was then measured by HPLC. A degradation rate per unit time (a reaction rate per unit time) was calculated from the peak area of HPLC of the reaction product. […] Similarly, with regard also to Fractions A, C, and D, graphs were plotted in such a way that the concentrations of the inhibiting agent sandwiched the concentration at which the enzyme activity was inhibited by 50%. The resulting graphs are shown (FIG. 23). The IC50 values of glycosylated OMSVP3 (Fractions A to D) calculated based on these graphs are shown in a graph (FIG. 24).
The 14-residue peptide having a protecting group synthesized in Reference Example 1 (to be described later) (SEQ ID NO:16) (1.5 mg) was dissolved in 1 mL of a 0.1 M phosphate buffer (pH 8.0, containing 0.1 mg/mL BSA) to prepare a 1 mM solution. The solution thus obtained was diluted to 0.34 mM using an absorption spectrometer (solution 1). Chymotrypsin (1 mg) was dissolved in 1 mL of a 0.1 M phosphate buffer (pH 8.0, containing 0.1 mg/mL BSA). The resulting solution was diluted 10-fold, and further diluted 10-fold. The above operation was repeated so that a solution of 0.2 μg/mL was prepared (solution 2). […] The resulting solution was diluted to prepare solutions of 58.5 nM, 52 nM, 45.5 nM, 39 nM, 32.5 nM, 26 nM, 19.5 nM, 13 nM, and 6.5 nM (solution 3). Into the same Eppendorf tube, 80 μL of Solution 1 that was sufficiently cooled on ice and 40 μL each of Solutions 2 and 3 were transferred, followed by incubation for one hour at 37° C. After one hour, the reaction was terminated by addition of 16 μL of 1N hydrochloric acid. Then, 20 μL of the resulting reaction solution was mixed with 80 μL of buffer to make up a total of 100 μL, which was then measured by HPLC. A degradation rate per unit time (a reaction rate per unit time) was calculated from the peak area of HPLC of the reaction product. […] Similarly, with regard also to Fractions E, G, and H, graphs were plotted in such a way that the concentrations of the inhibiting agent sandwiched the concentration at which the enzyme activity was inhibited by 50%. The resulting graphs are shown (FIG. 25). The IC50 values of non-glycosylated OMSVP3 (Fractions E to F) calculated based on these graphs are shown in a graph (FIG. 26).

Fraction B: Folded 56-residue glycosylated peptide (SEQ ID NO:10), glycosylated OMSVP3, disulfide bonds as naturally-occurring OMSVP3 (LAAVSVDCSEYPKPACTMEYRPLCGSDNKTYGNKCNFCNAVVESNGTLTLSHFGKC; glycosylated; silver pheasant; glycosylated amino acid sequence (glycosylated OMSVP3))
activity intensity (inhibitory activity against chymotrypsin), rank order of fractions (α-chymotrypsin): Fraction A>Fraction B>Fraction D>Fraction C
activity (in words) of the maximum peak fraction (α-chymotrypsin; chymotrypsin inhibition, fractions obtained as the maximum peak): high activity
activity intensity (percent inhibition / IC50 against chymotrypsin), rank order of fractions (Chymotrypsin): Fraction A>Fraction B>Fraction C>Fraction D

Fraction D: Folded 56-residue glycosylated peptide (SEQ ID NO:10), glycosylated OMSVP3, one higher order structure separated by HPLC (LAAVSVDCSEYPKPACTMEYRPLCGSDNKTYGNKCNFCNAVVESNGTLTLSHFGKC; glycosylated; silver pheasant; glycosylated amino acid sequence (glycosylated OMSVP3))
activity intensity (inhibitory activity against chymotrypsin), rank order of fractions (α-chymotrypsin): Fraction A>Fraction B>Fraction D>Fraction C
activity intensity (percent inhibition / IC50 against chymotrypsin), rank order of fractions (Chymotrypsin): Fraction A>Fraction B>Fraction C>Fraction D

Fraction G: Folded 56-residue peptide (SEQ ID NO:15), non-glycosylated OMSVP3, Comparative Example, separated by HPLC (LAAVSVDCSEYPKPACTMEYRPLCGSDNKTYGNKCNFCNAVVESNGTLTLSHFGKC; silver pheasant; amino acid sequence (non-glycosylated OMSVP3))
activity intensity (inhibitory activity against chymotrypsin), rank order of fractions (α-chymotrypsin): Fraction F>Fraction E>Fraction H>Fraction G
activity intensity (percent inhibition / IC50 against chymotrypsin), rank order of fractions (Chymotrypsin): Fraction E>Fraction F>Fraction G>Fraction H

Fraction H: Folded 56-residue peptide (SEQ ID NO:15), non-glycosylated OMSVP3, Comparative Example, separated by HPLC (LAAVSVDCSEYPKPACTMEYRPLCGSDNKTYGNKCNFCNAVVESNGTLTLSHFGKC; silver pheasant; amino acid sequence (non-glycosylated OMSVP3))
activity intensity (inhibitory activity against chymotrypsin), rank order of fractions (α-chymotrypsin): Fraction F>Fraction E>Fraction H>Fraction G
activity intensity (percent inhibition / IC50 against chymotrypsin), rank order of fractions (Chymotrypsin): Fraction E>Fraction F>Fraction G>Fraction H

Fraction C: Folded 56-residue glycosylated peptide (SEQ ID NO:10), glycosylated OMSVP3, one higher order structure separated by HPLC (LAAVSVDCSEYPKPACTMEYRPLCGSDNKTYGNKCNFCNAVVESNGTLTLSHFGKC; glycosylated; silver pheasant; glycosylated amino acid sequence (glycosylated OMSVP3))
activity intensity (inhibitory activity against chymotrypsin), rank order of fractions (α-chymotrypsin): Fraction A>Fraction B>Fraction D>Fraction C
activity intensity (percent inhibition / IC50 against chymotrypsin), rank order of fractions (Chymotrypsin): Fraction A>Fraction B>Fraction C>Fraction D

Fraction A: Folded 56-residue glycosylated peptide (SEQ ID NO:10), glycosylated OMSVP3, one higher order structure separated by HPLC (LAAVSVDCSEYPKPACTMEYRPLCGSDNKTYGNKCNFCNAVVESNGTLTLSHFGKC; glycosylated; silver pheasant; glycosylated amino acid sequence (glycosylated OMSVP3))
activity intensity (inhibitory activity against chymotrypsin), rank order of fractions (α-chymotrypsin): Fraction A>Fraction B>Fraction D>Fraction C
activity intensity (percent inhibition / IC50 against chymotrypsin), rank order of fractions (Chymotrypsin): Fraction A>Fraction B>Fraction C>Fraction D

Fraction E: Folded 56-residue peptide (SEQ ID NO:15), non-glycosylated OMSVP3, Comparative Example, separated by HPLC (LAAVSVDCSEYPKPACTMEYRPLCGSDNKTYGNKCNFCNAVVESNGTLTLSHFGKC; silver pheasant; amino acid sequence (non-glycosylated OMSVP3))
activity intensity (inhibitory activity against chymotrypsin), rank order of fractions (α-chymotrypsin): Fraction F>Fraction E>Fraction H>Fraction G
activity intensity (percent inhibition / IC50 against chymotrypsin), rank order of fractions (Chymotrypsin): Fraction E>Fraction F>Fraction G>Fraction H
